# Measured values as given in the supplement of paper PMC4604168 (melanoma cell lines).
# This is one part of the list. Repeats are few or missing, and single values can be far off.
# What was measured:
# Test in all cases: cell count relative to DMSO control; melanoma cells; higher = more viable cells
# Conditions in all cases: library dose: standard library concentration; 72 h
# [1] = test system: G361
# [2] = test system: IPC-298
# [3] = test system: IST-MEL1
# [4] = test system: LB2518-MEL
# [5] = test system: LOXIMVI
# [6] = test system: MEL-HO
# [7] = test system: MZ2-MEL
# [8] = test system: MeWo
# [9] = test system: RPMI7951
# [10] = test system: RVH-421
# [11] = test system: SkMel28
# [12] = test system: SkMel2
# [13] = test system: SkMel30
# [14] = test system: SkMel5
# [15] = test system: UACC257
# [16] = test system: UACC62
# [17] = test system: WM115
# [18] = test system: WM1716
# [19] = test system: WM1745
# [20] = test system: WM3526
# 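Also: cells treated in 1,536-well plates, then fixed and DAPI-stained, with nuclei counted from automated high-throughput microscope images.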
SMILES,cell count [1] [%],cell count [2] [%],cell count [3] [%],cell count [4] [%],cell count [5] [%],cell count [6] [%],cell count [7] [%],cell count [8] [%],cell count [9] [%],cell count [10] [%],cell count [11] [%],cell count [12] [%],cell count [13] [%],cell count [14] [%],cell count [15] [%],cell count [16] [%],cell count [17] [%],cell count [18] [%],cell count [19] [%],cell count [20] [%]
"Nc1ccn([C@@H]2O[C@H](CO)[C@@H](O)C2(F)F)c(=O)n1 [gemcitabine] + Cn1nnc2c(C(N)=O)ncn2c1=O [temozolomide] (first compound 0.002 µM, partner dose 10 µM)",50.2,53.4,35.5,78.3,82,75.5,120,50.6,71.3,66.6,60.8,142,58.6,93.3,94.4,46.4,72.2,46.5,61.6,101
"Nc1nc(F)nc2c1ncn2[C@@H]1O[C@H](CO)[C@@H](O)[C@@H]1O [fludarabine] + C[C@@H]1CCN(C(=O)CC#N)C[C@@H]1N(C)c1ncnc2[nH]ccc12 [CP690550] (first compound 1 µM, partner dose 5 µM)",64,68.1,61.3,85.2,85.8,76.6,103,73.1,43.9,88.9,1.59,0.95,16.8,34.5,28.4,60.8,62.5,79.7,73.9,19.4
"CO[C@H]1C[C@@H]2CC[C@@H](C)[C@@](O)(O2)C(=O)C(=O)N2CCCC[C@H]2C(=O)O[C@H]([C@H](C)C[C@@H]2CC[C@@H](OCCO)[C@H](OC)C2)CC(=O)[C@H](C)/C=C(\C)[C@@H](O)[C@@H](OC)C(=O)[C@H](C)C[C@H](C)/C=C/C=C/C=C/1C [everolimus] + C[C@]1(c2nc3c(C(N)=O)cccc3[nH]2)CCCN1 [Veliparib] (first compound 0.1 µM, partner dose 7 µM)",58,67.5,77.7,71.2,49.5,63.3,74.2,64.4,78.9,58.1,44.9,61.3,67.2,52.7,76.7,58.3,65.2,65.8,71.7,61.7
"CC(=O)c1c(C)c2cnc(Nc3ccc(N4CCNCC4)cn3)nc2n(C2CCCC2)c1=O [palbociclib] + NC(=O)Nc1cc(-c2cccc(F)c2)sc1C(=O)N[C@H]1CCCNC1 [AZD7762] (first compound 0.2 µM, partner dose 0.1 µM)",75.2,77,69.5,65.7,63.4,76.3,73.5,53.2,44.8,76.5,55.2,66.1,65.9,50.1,69.1,64.4,48.7,37.7,66.2,49.1
"CO[C@H]1C[C@@H]2CC[C@@H](C)[C@@](O)(O2)C(=O)C(=O)N2CCCC[C@H]2C(=O)O[C@H]([C@H](C)C[C@@H]2CC[C@@H](OCCO)[C@H](OC)C2)CC(=O)[C@H](C)/C=C(\C)[C@@H](O)[C@@H](OC)C(=O)[C@H](C)C[C@H](C)/C=C/C=C/C=C/1C [everolimus] + CC1(C)NC(=O)N(c2ccc([N+](=O)[O-])c(C(F)(F)F)c2)C1=O [nilutamide] (first compound 0.1 µM, partner dose 5 µM)",63.1,86.3,38.5,63.4,90.2,69,99.9,62.1,104,64.5,33,53.1,81.5,59.9,95.9,73.5,69.3,99.8,85.4,73.8
"CC(=O)c1c(C)c2cnc(Nc3ccc(N4CCNCC4)cn3)nc2n(C2CCCC2)c1=O [palbociclib] + C#Cc1cccc(Nc2ncnc3cc(OCCOC)c(OCCOC)cc23)c1 [erlotinib] (first compound 0.2 µM, partner dose 4 µM)",55.3,44.3,68.3,50.9,82.3,59.7,30.2,46.5,64.8,94.9,31.4,54,47.4,55.2,93.8,39.6,55.7,45.9,59.1,62.7
"CO[C@H]1C[C@@H]2CC[C@@H](C)[C@@](O)(O2)C(=O)C(=O)N2CCCC[C@H]2C(=O)O[C@H]([C@H](C)C[C@@H]2CC[C@@H](OCCO)[C@H](OC)C2)CC(=O)[C@H](C)/C=C(\C)[C@@H](O)[C@@H](OC)C(=O)[C@H](C)C[C@H](C)/C=C/C=C/C=C/1C [everolimus] + O=C(Nc1cccc(Cl)c1)Nc1ncc(CCNc2ncnc3ccsc23)s1 [SNS314] (first compound 0.1 µM, partner dose 0.004 µM)",63.2,75.8,57.1,72.7,65.3,66.9,72,60.4,108,61.2,40.3,58.3,76.7,74.2,74.4,88.8,66.9,53.5,79.1,69.2
"Nc1ccn([C@@H]2O[C@H](CO)[C@@H](O)C2(F)F)c(=O)n1 [gemcitabine] + CO[C@@H]1[C@H](N(C)C(=O)c2ccccc2)C[C@H]2O[C@]1(C)n1c3ccccc3c3c4c(c5c6ccccc6n2c5c31)C(=O)NC4 [Midostaurin] (first compound 0.002 µM, partner dose 0.4 µM)",38.5,30.5,92.3,59.9,68.2,58.8,50.9,42.4,38.6,119,37.3,51.7,76.7,72,70.3,73.6,59.3,53.4,32.8,82.3
"CO[C@H]1C[C@@H]2CC[C@@H](C)[C@@](O)(O2)C(=O)C(=O)N2CCCC[C@H]2C(=O)O[C@H]([C@H](C)C[C@@H]2CC[C@@H](OCCO)[C@H](OC)C2)CC(=O)[C@H](C)/C=C(\C)[C@@H](O)[C@@H](OC)C(=O)[C@H](C)C[C@H](C)/C=C/C=C/C=C/1C [everolimus] + Cn1nnc2c(C(N)=O)ncn2c1=O [temozolomide] (first compound 0.1 µM, partner dose 10 µM)",50.2,60.3,85.6,50.4,57.7,61,59.3,67.1,81.7,77.3,25.4,69.6,65.6,62.5,101,54.5,55.8,57.9,69.3,62.4
"CC(=O)O[C@@]12CO[C@@H]1C[C@H](O)[C@@]1(C)C(=O)[C@H](O)C3=C(C)[C@@H](OC(=O)[C@H](O)[C@@H](NC(=O)OC(C)(C)C)c4ccccc4)C[C@@](O)([C@@H](OC(=O)c4ccccc4)[C@H]21)C3(C)C [Docetaxel] + CS(=O)(=O)CCNCc1ccc(-c2ccc3ncnc(Nc4ccc(OCc5cccc(F)c5)c(Cl)c4)c3c2)o1 [lapatinib] (first compound 0.0005 µM, partner dose 4 µM)",8.65,33.4,46.3,32.5,77.9,46,40.7,33.5,21.6,82.8,22,24.4,50.5,31.5,64.1,30.4,37.7,35.4,28.1,44.6
"Nc1ccn([C@@H]2O[C@H](CO)[C@@H](O)C2(F)F)c(=O)n1 [gemcitabine] + Cc1ccc(NC(=O)c2cccc(N(C)C)c2)cc1NC(=O)c1ccc(O)cc1 [ZM336372] (first compound 0.002 µM, partner dose 10 µM)",67.5,57.7,45.9,91.9,79.5,65.6,77.1,42.6,86.8,77.7,92.6,95.7,111,82.2,85.3,94.8,97.3,63.4,50.9,91.5
"CC(=O)O[C@@]12CO[C@@H]1C[C@H](O)[C@@]1(C)C(=O)[C@H](O)C3=C(C)[C@@H](OC(=O)[C@H](O)[C@@H](NC(=O)OC(C)(C)C)c4ccccc4)C[C@@](O)([C@@H](OC(=O)c4ccccc4)[C@H]21)C3(C)C [Docetaxel] + Nc1cccc2c1CN(C1CCC(=O)NC1=O)C2=O [lenalidomide] (first compound 0.0005 µM, partner dose 5 µM)",15.3,46,28.8,49.7,59.7,39,41,22.6,31.6,162,13.6,25.1,54.2,31.1,57.5,56.1,32.3,33.4,52.6,33
"CO[C@H]1C[C@@H]2CC[C@@H](C)[C@@](O)(O2)C(=O)C(=O)N2CCCC[C@H]2C(=O)O[C@H]([C@H](C)C[C@@H]2CC[C@@H](OCCO)[C@H](OC)C2)CC(=O)[C@H](C)/C=C(\C)[C@@H](O)[C@@H](OC)C(=O)[C@H](C)C[C@H](C)/C=C/C=C/C=C/1C [everolimus] + COc1ccc(Cl)c(Nc2nc3ccccc3nc2NS(=O)(=O)c2cccc(NC(=O)C(C)(C)N)c2)c1 [XL147] (first compound 0.1 µM, partner dose 4 µM)",64.4,62.4,70.3,70.4,86,61.4,62.9,63.1,101,78.7,44.7,79.9,70.8,63.8,97.5,62.8,69.8,81.7,84.7,64.9
"Nc1nc(F)nc2c1ncn2[C@@H]1O[C@H](CO)[C@@H](O)[C@@H]1O [fludarabine] + NCC(=O)Nc1ccc(-n2nc(C(F)(F)F)cc2-c2ccc3c(ccc4ccccc43)c2)cc1 [OSU03012] (first compound 1 µM, partner dose 5 µM)",73.6,48.8,54.6,64.8,61.9,70.3,95.5,71.4,67.1,71.1,2.53,1.95,10.7,27.6,21.1,61.6,67.1,87.5,69.1,18.9
